Results reported in paper PMC5333157.
Numbering of substitutions follows the chain as printed. Results are given in words; binding and its absence hold for the method and conditions named. For some of these results: Binding seen in cells or lysates may run through a third protein. Some binding calls cover weakened binding; strength is not graded here. For some of these results: Tags and fused reporters may be left off the sequences shown.

Sequences of proteins named here, by UniProt entry; tags and fusion partners are left off. A change or cut given only in a name is not applied to a line headed by its entry.
UniProt Q16659: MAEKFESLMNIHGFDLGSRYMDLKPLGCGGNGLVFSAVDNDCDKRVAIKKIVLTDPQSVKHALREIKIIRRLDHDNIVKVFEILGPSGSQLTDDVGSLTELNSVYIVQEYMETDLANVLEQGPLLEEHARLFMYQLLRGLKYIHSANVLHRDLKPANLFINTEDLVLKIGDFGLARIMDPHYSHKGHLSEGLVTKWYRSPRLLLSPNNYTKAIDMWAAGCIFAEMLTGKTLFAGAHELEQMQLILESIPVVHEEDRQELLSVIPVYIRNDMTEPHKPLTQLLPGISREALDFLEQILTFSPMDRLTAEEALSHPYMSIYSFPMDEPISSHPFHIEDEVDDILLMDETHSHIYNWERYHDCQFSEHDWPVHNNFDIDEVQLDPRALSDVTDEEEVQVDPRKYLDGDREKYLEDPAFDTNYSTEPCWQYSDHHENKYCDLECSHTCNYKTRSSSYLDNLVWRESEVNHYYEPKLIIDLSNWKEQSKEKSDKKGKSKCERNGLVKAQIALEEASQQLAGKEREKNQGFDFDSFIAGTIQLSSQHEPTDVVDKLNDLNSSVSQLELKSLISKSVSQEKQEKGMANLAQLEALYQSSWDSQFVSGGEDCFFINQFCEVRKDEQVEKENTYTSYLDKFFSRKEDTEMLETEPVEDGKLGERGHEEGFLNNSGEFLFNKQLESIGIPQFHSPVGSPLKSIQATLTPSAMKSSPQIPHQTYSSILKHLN
UniProt P31152: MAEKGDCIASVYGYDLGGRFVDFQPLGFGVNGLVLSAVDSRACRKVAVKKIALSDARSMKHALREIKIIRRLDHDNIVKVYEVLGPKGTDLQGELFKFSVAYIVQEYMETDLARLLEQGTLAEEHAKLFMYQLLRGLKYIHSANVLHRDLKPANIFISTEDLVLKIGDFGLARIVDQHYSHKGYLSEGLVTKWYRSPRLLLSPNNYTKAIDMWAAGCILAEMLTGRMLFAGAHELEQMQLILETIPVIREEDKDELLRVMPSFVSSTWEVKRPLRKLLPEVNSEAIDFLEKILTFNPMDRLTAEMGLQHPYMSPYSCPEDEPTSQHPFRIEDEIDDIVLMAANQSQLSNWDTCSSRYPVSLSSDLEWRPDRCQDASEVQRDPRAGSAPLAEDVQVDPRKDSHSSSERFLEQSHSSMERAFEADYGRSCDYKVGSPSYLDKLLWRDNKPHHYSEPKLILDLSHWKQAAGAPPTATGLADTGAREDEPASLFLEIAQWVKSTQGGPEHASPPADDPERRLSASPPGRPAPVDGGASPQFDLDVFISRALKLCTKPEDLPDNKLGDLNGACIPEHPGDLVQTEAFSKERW

What was measured:
[1] = molecular target: endogenous ERK3 (human (endogenous in NCI-H1299 and Jurkat)) (UniProt Q16659); assay: co-IP; Jurkat T-cells stimulated with PMA and anti-CD3 antibody for 3 hours in presence of MG132; endogenous ERK3 immunoprecipitated with goat polyclonal anti-ERK3; DUSP2 detected by Western blot; preimmune sheep IgG as control
[2] = molecular target: T1, GST-mDUSP2KIM (kinase interaction motif-deficient murine DUSP2) (mouse) (UniProt Q05922); assay: pull-down; 2 ug recombinant ERK3 or ERK4 with 2 ug purified GST fusion in 200 ul 50 mM Tris/HCl pH 7.5, 1 mM EGTA, 1 mM EDTA, 1% Triton-X 100, 1 mM sodium orthovanadate, 50 mM sodium fluoride, 5 mM sodium pyrophosphate, 0.27 M sucrose, 2 h at 4 C; Glutathione-Sepharose; Western blot; both purified
T1 sequence: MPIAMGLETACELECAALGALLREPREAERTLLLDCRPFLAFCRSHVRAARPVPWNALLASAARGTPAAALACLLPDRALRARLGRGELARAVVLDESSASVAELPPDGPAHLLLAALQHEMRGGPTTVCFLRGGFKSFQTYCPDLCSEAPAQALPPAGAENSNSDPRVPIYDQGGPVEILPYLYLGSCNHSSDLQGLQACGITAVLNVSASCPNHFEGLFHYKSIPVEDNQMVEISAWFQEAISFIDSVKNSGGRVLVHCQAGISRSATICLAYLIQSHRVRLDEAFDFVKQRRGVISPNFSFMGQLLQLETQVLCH

[3] = molecular target: T2, GST-mDUSP2CS (catalytically inactive C261S mutant of murine DUSP2) (mouse) (UniProt Q05922); assay: as above
T2 sequence: T1 sequence with A60R, S61R, A62R, C261S

[4] = molecular target: T3, GST-mDUSP2 (fusion between GST and the murine homologue of DUSP2, wild-type) (mouse) (UniProt Q05922); assay: as above
T3 sequence: T1 sequence with A60R, S61R, A62R

[5] = molecular target: T4, DUSP2 (wild-type), GAL4 DNA-binding domain fusion (human) (UniProt Q05923); assay: two-hybrid; semi-quantitative analysis by induction of the beta-galactosidase reporter gene; triplicate
T4 sequence: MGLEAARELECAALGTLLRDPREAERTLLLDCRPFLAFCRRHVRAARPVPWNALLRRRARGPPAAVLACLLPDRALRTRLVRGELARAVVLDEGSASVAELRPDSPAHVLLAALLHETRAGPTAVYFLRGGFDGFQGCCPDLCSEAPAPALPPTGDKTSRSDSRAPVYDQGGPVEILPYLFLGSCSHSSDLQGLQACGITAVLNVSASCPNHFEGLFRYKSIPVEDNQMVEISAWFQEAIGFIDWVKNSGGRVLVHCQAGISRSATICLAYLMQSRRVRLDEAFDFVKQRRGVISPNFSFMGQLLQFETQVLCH

[6] = molecular target: T5, DUSP10/MKP-5, GAL4 DNA-binding domain fusion (human) (UniProt Q9Y6W6); assay: two-hybrid; GAL4 activation domain fusions of ERK3, ERK4 or ERK2 (pGADT7, Y187) mated with GAL4 DNA-binding domain fusions of MKPs (pGBKT7, PJ69-2A); growth on SD medium lacking leucine, tryptophan, alanine and histidine
T5 sequence: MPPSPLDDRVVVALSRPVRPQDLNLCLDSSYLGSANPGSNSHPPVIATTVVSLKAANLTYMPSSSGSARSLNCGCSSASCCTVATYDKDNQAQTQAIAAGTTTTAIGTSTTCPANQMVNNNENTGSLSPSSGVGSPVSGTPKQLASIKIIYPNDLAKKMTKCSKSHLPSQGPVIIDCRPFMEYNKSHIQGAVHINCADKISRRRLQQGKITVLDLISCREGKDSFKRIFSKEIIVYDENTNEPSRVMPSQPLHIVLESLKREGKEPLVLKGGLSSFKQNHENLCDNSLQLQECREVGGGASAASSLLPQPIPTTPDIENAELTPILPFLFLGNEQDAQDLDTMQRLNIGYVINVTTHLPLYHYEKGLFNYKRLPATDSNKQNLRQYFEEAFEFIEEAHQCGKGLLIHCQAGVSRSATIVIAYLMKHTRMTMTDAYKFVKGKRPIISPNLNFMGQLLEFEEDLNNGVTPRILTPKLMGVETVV

[7] = molecular target: T6, DUSP16/MKP-7, GAL4 DNA-binding domain fusion (human) (UniProt Q9BY84); assay: as above
T6 sequence: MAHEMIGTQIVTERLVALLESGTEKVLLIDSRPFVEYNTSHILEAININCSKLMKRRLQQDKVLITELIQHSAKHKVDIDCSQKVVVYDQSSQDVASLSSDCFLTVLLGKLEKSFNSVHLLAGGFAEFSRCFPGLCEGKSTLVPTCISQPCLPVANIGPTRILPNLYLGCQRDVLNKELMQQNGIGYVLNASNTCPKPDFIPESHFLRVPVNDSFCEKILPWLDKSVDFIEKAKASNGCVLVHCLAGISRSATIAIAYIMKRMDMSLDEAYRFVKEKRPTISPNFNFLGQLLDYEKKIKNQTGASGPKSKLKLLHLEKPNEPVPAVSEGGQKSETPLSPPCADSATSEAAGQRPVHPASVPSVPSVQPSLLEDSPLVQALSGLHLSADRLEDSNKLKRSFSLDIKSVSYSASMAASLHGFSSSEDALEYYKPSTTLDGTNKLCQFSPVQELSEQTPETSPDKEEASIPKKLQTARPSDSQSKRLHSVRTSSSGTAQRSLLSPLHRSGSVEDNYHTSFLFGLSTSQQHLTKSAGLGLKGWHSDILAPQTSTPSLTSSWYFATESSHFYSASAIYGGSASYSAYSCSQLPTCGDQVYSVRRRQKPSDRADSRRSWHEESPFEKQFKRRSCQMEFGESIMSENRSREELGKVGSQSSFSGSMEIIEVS

[8] = molecular target: T7, DUSP6/MKP-3, GAL4 DNA-binding domain fusion (human) (UniProt Q16828); assay: as above
T7 sequence: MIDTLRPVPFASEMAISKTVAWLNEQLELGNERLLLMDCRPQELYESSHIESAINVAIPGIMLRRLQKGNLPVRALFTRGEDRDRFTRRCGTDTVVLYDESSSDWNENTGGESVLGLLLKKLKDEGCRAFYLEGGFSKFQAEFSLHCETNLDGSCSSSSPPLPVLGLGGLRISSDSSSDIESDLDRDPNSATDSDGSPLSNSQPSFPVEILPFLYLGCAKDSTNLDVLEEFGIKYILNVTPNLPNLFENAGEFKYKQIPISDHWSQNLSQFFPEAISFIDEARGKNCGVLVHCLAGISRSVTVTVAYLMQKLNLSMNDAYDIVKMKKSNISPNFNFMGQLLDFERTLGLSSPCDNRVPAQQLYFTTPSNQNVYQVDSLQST

[9] = molecular target: T8, DUSP1/MKP-1, GAL4 DNA-binding domain fusion (human) (UniProt P28562); assay: as above
T8 sequence: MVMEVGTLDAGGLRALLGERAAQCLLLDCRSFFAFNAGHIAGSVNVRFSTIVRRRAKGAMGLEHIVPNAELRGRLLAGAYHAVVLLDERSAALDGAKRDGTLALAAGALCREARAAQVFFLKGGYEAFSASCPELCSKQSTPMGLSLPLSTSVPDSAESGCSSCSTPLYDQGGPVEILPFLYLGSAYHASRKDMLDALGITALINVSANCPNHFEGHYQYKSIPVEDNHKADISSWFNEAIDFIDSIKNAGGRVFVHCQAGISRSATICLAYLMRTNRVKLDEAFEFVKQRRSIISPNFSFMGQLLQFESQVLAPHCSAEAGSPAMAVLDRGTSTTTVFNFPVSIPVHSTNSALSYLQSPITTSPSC

[10] = molecular target: T4, DUSP2 (wild-type), GAL4 DNA-binding domain fusion (human); assay: as above
[11] = molecular target: T9, catalytically inactive DUSP2 mutant (DUSP2CS, C257S), GAL4 DNA-binding domain fusion (human) (UniProt Q05923); assay: as above
T9 sequence: T4 sequence with C257S

Substance	binding [2]	binding [3]	binding [4]	binding [5]	binding [6]	binding [7]	binding [8]	binding [9]	binding [10]	binding [11]	also measured
endogenous DUSP2 (from UniProt Q05923 1-314) (enzyme)	–	–	–	–	–	–	–	–	–	–	binding [1]: binds
purified recombinant ERK3 (from UniProt Q16659 1-721) (enzyme)	no binding (tested: 2 ug of each protein in 200 ul)	binds	binds	–	–	–	–	–	–	–	–
ERK3 (wild-type), GAL4 activation domain fusion (from UniProt Q16659 1-721) (enzyme)	–	–	–	binds	no binding	no binding	no binding	no binding	binds	binds	–
ERK4 (wild-type), GAL4 activation domain fusion (from UniProt P31152 1-587) (enzyme)	–	–	–	binds	no binding	no binding	no binding	no binding	binds	binds	–
purified recombinant ERK4 (from UniProt P31152 1-587) (enzyme)	no binding (tested: 2 ug of each protein in 200 ul)	binds	binds	–	–	–	–	–	–	–	–
ERK3 D324N (CD domain mutant), two-hybrid fusion (from UniProt Q16659 1-721) (enzyme)	–	–	–	no binding	–	–	–	–	–	–	–
